We go through 46 compounds from the supplement of paper PMC11060735.

Structures can show the parent of a compound that is named as a salt. The campaign covered roughly 1,800 compounds. About 50 (3%) showed activity. The list shows a part of the results.
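Further: fibroblasts sorted 14 days after bleomycin, GFP+ and GFP− mixed 1:1 in 384-well plates (GFP− as in-well control), imaged after Hoechst and NucView530 staining, reference wells lacked compound.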

The subject of this assay is mouse p16Ink4a+/- lung fibroblasts (INKBRITE, bleomycin-injured). Kind of assay: percentage of GFP+ (p16Ink4a+) fibroblasts among all cells in well; higher = less depletion of p16Ink4a+ cells, active = 20 or less. The conditions noted are these: 1 µM; 3 days.
For `COc1ccccc1N1CCN(CCCNc2cc(=O)n(C)c(=O)n2C)CC1` [Urapidil Hydrochloride], the “percentage of GFP+” value was inactive: 47.4%.
On to `CC(C)c1cc(C(C)C)c(CC(=O)NS(=O)(=O)Oc2c(C(C)C)cccc2C(C)C)c(C(C)C)c1` [Avasimibe], for which the “percentage of GFP+” value is inactive: 53.1%.
Under `O=C(Nc1cc2cc[nH]c2cn1)c1ccccc1` stands inactive: 41.5%; under `COc1ccc2cc([C@H](C)C(=O)O)ccc2c1` [Naproxen], inactive: 40.7%; under `c1ccc(-c2[nH]ncc2-c2ccnc3ccccc23)nc1` [4-(3-Pyridin-2-Yl-1h-Pyrazol-4-Yl)Quinoline], inactive: 49.8%.
Under `CC[C@H](C)C(=O)O[C@H]1C[C@@H](C)C=C2C=C[C@H](C)[C@H](CC[C@@H]3C[C@@H](O)CC(=O)O3)[C@H]21` [Lovastatin] stands inactive: 33.8%; under `N#C[C@@H]1C[C@@H]2C[C@@H]2N1C(=O)[C@@H](N)C12CC3CC(CC(O)(C3)C1)C2` [Saxagliptin], inactive: 46.3%.
As to `CCCCN1CCCCC1C(=O)Nc1c(C)cccc1C` (stereo unspecified) [Bupivacaine], the “percentage of GFP+” value was inactive: 42.9%.
Under `CC(C)[C@H](N)C(=O)OCC(CO)OCN1C=NC2C(=O)NC(N)=NC21` (stereo partly specified) [Valganciclovir HCl] stands inactive: 50.2%; under `Cc1ccc(Cl)cc1N(CC(=O)Nc1c(F)cccc1F)S(C)(=O)=O`, inactive: 43.1%; under `O=C1NC(=O)/C(=C/c2cccc(C(F)(F)F)c2)S1`, inactive: 46.2%.
Next, `O=Nc1c(-c2c(O)[nH]c3cc(Br)ccc23)[nH]c2ccccc12` [(3e)-6'-Bromo-2,3'-Biindole-2',3(1h,1'h)-Dione 3-Oxime]: inactive: 42.5%.
Next, `CC(=O)Nc1nc(C)c(-c2ccc(Cl)c(S(=O)(=O)NCCO)c2)s1`: inactive: 30.1%; `CC(=O)C1=C(O)C=C2Oc3c(C(C)=O)c(O)c(C)c(O)c3[C@]2(C)C1=O` [(+)-Usniacin]: inactive: 45.5%.
`C#Cc1cccc(Nc2ncnc3cc4c(cc23)OCCOCCOCCO4)c1` [Icotinib]: the “percentage of GFP+” value was inactive: 52.7%.
For `CC(C)C[C@@H](C(=O)N[C@H](C(=O)OC1CCCC1)c1ccccc1)[C@H](O)C(=O)NO` [Tosedostat], the “percentage of GFP+” value is inactive: 44.6%.
Regarding `Cc1nnc(C(C)C)n1C1CC2CCC(C1)N2CC[C@H](NC(=O)C1CCC(F)(F)CC1)c1ccccc1` (stereo partly specified) [Maraviroc], the “percentage of GFP+” value is inactive: 35.4%.
Under `Cn1c(N2CCCCS2(=O)=O)nc(C(=O)NCc2ccc(F)cc2)c(O)c1=O` stands inactive: 26.4%; under `NC(Cc1c[nH]c2ccc(O)cc12)C(=O)O` (stereo unspecified) [5-hydroxytryptophan (5-HTP)], inactive: 41.1%.
As to `COC1=C(OC)C(=O)C(CCCCCCCCCCO)=C(C)C1=O` [Idebenone], the “percentage of GFP+” value is inactive: 43.7%.
Under `C[C@H](N[C@@H](CCc1ccccc1)C(=O)O)C(=O)N1CCC[C@H]1C(=O)O` [Enalaprilat] stands inactive: 36.7%; under `CCc1ccc(OCc2ccccc2C(=O)Nc2ccc3nc(C)cc(N)c3c2)cc1`, inactive: 51.7%.
Under `CO/C(O)=C1\C(C)=NC(C)=C(C(=O)OCCN(C)Cc2ccccc2)C1c1cccc([N+](=O)[O-])c1` (stereo unspecified) [Nicardipine] stands inactive: 50.2%.
Under `O=C1CC(=O)c2c(Cl)c(Cl)c(Cl)c(Cl)c21` stands inactive: 39.4%; under `CC(C)NCC(O)COc1ccc(CCOCC2CC2)cc1` (stereo unspecified) [Betaxolol], inactive: 50.1%.
For `CC1(C)CCC(C)(C)c2cc(NC(=O)c3ccc(C(=O)O)cc3)ccc21` [Tamibarotene], the “percentage of GFP+” value is inactive: 28.2%.
With `CC(=O)NC[C@H]1CN(c2ccc(N3CCOCC3)c(F)c2)C(=O)O1` [Linezolid], the “percentage of GFP+” value was inactive: 52.5%.
Under `CN(C)C(=O)Nc1cccc(-c2ccc(N(C)C)cc2)c1` [Atglistatin] stands inactive: 48.3%.
Next, `CC(=O)Nc1ccc(NC(=S)NC(=O)c2ccc(C(C)(C)C)cc2)cc1` [Tenovin-1]: inactive: 52.2%; `Cc1cn([C@H]2O[C@@H](CO)[C@H](O)[C@H]2F)c(=O)[nH]c1=O` [Clevudine]: inactive: 43.3%; `O=c1ncn2nc(Sc3ccc(F)cc3F)ccc2c1-c1c(Cl)cccc1Cl`: inactive: 44.8%.
Turning to `CC[C@H](/C=C/[C@@H](C)[C@@H]1CC[C@H]2[C@@H]3CC=C4C[C@@H](O)CC[C@]4(C)[C@@H]3CC[C@@]21C)C(C)C` [Stigmasterol], the “percentage of GFP+” value is inactive: 44.8%.
Under `O=C(O)c1cn(-c2ccc(F)cc2)c2cc(N3CCNCC3)c(F)cc2c1=O` [Sarafloxacin] stands inactive: 31.1%.
Under `CCCCCCCCCCCCCCCC[n+]1ccn(Cc2ccccc2)c1C` stands inactive: 29.6%; under `c1ccc(-c2ccc(C(c3ccccc3)n3ccnc3)cc2)cc1` (stereo unspecified) [Bifonazole], inactive: 38.8%; under `O=S(=O)(c1cccc2cnccc12)N1CCCNCC1` [Fasudil Hydrochloride], inactive: 48.7%.
Under `Nc1nc(O)c2ncn(COC(CO)CO)c2n1` [Ganciclovir] stands inactive: 38.1%; under `Cc1cc(O)c2c(c1)C(=O)c1cccc(O)c1C2=O` [Chrysophanol], inactive: 47.4%.
As for `C=C[C@]1(C)C[C@@H](OC(=O)CSC(C)(C)CNC(=O)[C@H](N)C(C)C)[C@]2(C)[C@H](C)CC[C@]3(CCC(=O)[C@H]32)[C@@H](C)[C@@H]1O` [Valnemulin HCl], the “percentage of GFP+” value was inactive: 54.6%.
Under `CC(=O)Nc1cccc(-n2c(=O)n(C3CC3)c(=O)c3c(Nc4ccc(I)cc4F)n(C)c(=O)c(C)c32)c1` [Trametinib] stands inactive: 27.8%.
Under `CNS(=O)(=O)CCc1ccc2[nH]cc(C3CCN(C)CC3)c2c1` [Naratriptan] stands inactive: 47.4%; under `COCCCC/C(=N\OCCN)c1ccc(C(F)(F)F)cc1` [Fluvoxamine], inactive: 46.9%.
Under `CC(=O)Oc1ccccc1C(=O)O` [Acetylsalicylic acid] stands inactive: 52.8%.
For `Nc1nnc(-c2cccc(Cl)c2Cl)c(N)n1` [Lamotrigine], the “percentage of GFP+” value is inactive: 49.9%.
As to `Cc1cn([C@@H]2C[C@@H](O)[C@H](CO)O2)c(=O)[nH]c1=O` [Telbivudine], the “percentage of GFP+” value is inactive: 44.5%.
Under `CCOc1nc2cccc(C(=O)OC(C)OC(=O)OC3CCCCC3)c2n1Cc1ccc(-c2ccccc2-c2nn[nH]n2)cc1` (stereo unspecified) [Candesartan Cilextil] stands inactive: 44.8%.
